Experimental data: article PMC4242493
The list shows a part of the results. The list includes weakly bound sequences.

These sequences were tested against MaxL homodimer (UniProt P61244) (assay: universal protein-binding microarray (PBM)). Conditions: PBS-based mixture, 10 nM His-tagged protein dimer, 2% milk, 200 ng/uL BSA, 50 ng/uL salmon testes DNA, 0.02% TX-100; detection with Alexa 488 anti-His …; high values mean tight binding; most listed sequences are background and not binding sites; double strand, one strand shown.
Chain of UniProt P61244 (P61244 whole entry): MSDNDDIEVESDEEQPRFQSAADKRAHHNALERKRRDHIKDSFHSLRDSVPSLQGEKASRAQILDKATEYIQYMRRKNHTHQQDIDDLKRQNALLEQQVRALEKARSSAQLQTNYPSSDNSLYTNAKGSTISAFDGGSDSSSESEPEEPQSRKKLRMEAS

| Sequence | binding signal (normalized occupancy) |
| --- | --- |
| GAAAGCGC | 0.0724 |
| AGTGAGAC | 0.0703 |
| TGATTCCA | 0.0829 |
| GTGCTGAA | 0.0776 |
| CCGAACGG | 0.0662 |
| AAGCGCAG | 0.0685 |
| GGATGCCC | 0.0714 |
| AAAACTTC | 0.067 |
| ATGACGCG | 0.0781 |
| GTCTAGCA | 0.0721 |
| ACCGAAGT | 0.0692 |
| CGGTACCC | 0.0711 |
| CTGATTAA | 0.0755 |
| GGGAGAGA | 0.0795 |
| AATGAAAC | 0.0763 |
| GAGGACAC | 0.0786 |
| ACTTTTTC | 0.0688 |
| AACCAAGC | 0.0742 |
| CATTAACC | 0.0839 |
| GCGCGGTA | 0.0822 |
| AAACCTCG | 0.0717 |
| AAAGGTGG | 0.0743 |
| ATTCCTAC | 0.0861 |
| CGTATATA | 0.082 |

| Sequence | binding signal (normalized occupancy) |
| --- | --- |
| AGTCAGCC | 0.0754 |
| TTGGCAAA | 0.0791 |
| AGACCCCG | 0.0739 |
| GGATCCTA | 0.074 |
| AGCACTAG | 0.0703 |
| AGGTTGGC | 0.0717 |
| AGGAATCC | 0.0758 |
| AACGGTAG | 0.0717 |
| CACGAGGC | 0.134 |
| TCGAAGCA | 0.071 |
| TGCGGGAA | 0.068 |
| GCGATCCC | 0.0775 |
| AACTGTGG | 0.0757 |
| CAGGCATA | 0.0804 |
| CTGATAAA | 0.076 |
| AATTTAGT | 0.072 |
| CGCCGGAA | 0.0679 |
| ATTCGTAC | 0.0786 |
| CTTCATCC | 0.0814 |
| ACTCGTCG | 0.0723 |
| GTAAACTA | 0.0715 |
| AATATACC | 0.0884 |
| CGCTGTCA | 0.0731 |
| CGTACCCA | 0.0851 |

| Sequence | binding signal (normalized occupancy) |
| --- | --- |
| GATGGGGA | 0.0824 |
| CAACCTCA | 0.0782 |
| TACGGTAA | 0.0768 |
| AACCAGCA | 0.0771 |
| CACGACTG | 0.078 |
| GCCCTTGA | 0.0674 |
| CATCGCAG | 0.0737 |
| CCGTGCCC | 0.0733 |
| CGGTATTC | 0.0743 |
| GGACTGAC | 0.0682 |
| TACGGGAA | 0.0744 |
| AGAGTGGA | 0.0795 |
| AGGGCGGC | 0.0674 |
| ACGAGTCC | 0.0751 |
| CATGGCAA | 0.0963 |
| ATCAGAAA | 0.0756 |
| TATACCGA | 0.0807 |
| ATTAGGTC | 0.0775 |
| AGAAAGGC | 0.0707 |
| GCTGCCCA | 0.0703 |
| AGCCGATC | 0.0729 |
| AATACTAG | 0.0706 |
| CCACCCTC | 0.0805 |
| AGCCAAAA | 0.0679 |

| Sequence | binding signal (normalized occupancy) |
| --- | --- |
| CTGCTGCA | 0.0717 |
| GTTAAAAA | 0.0784 |
| CAATGCGC | 0.0788 |
| CAGTCACG | 0.0862 |
| AAGTAGCC | 0.0758 |
| TCAACTCA | 0.0757 |
| CTTTTACA | 0.0823 |
| AGTAACAC | 0.0787 |
| TACGCACA | 0.0789 |
| GGCATCTA | 0.0787 |
| GGCGCTTA | 0.0693 |
| AGTTGTGC | 0.0733 |
| AGTCACGC | 0.0989 |
| AAAGAATC | 0.0771 |
| ACGTTCCG | 0.0739 |
| GTCACATA | 0.0806 |
| CGTGAGTA | 0.0788 |
| CAGAGGTC | 0.075 |
| GCATGAGA | 0.0947 |
| TAGCTCGA | 0.0723 |
| AAGTCGCT | 0.0684 |
| AGCTTTAA | 0.0676 |
